Test results from PubChem BioAssay AID686979 (National Center for Advancing Translational Sciences (NCATS), 2013).
“And” between values parts separate entries of the source, which are not always exact repeats. Equal values may be shown once. In all, about 420,000 compounds went through this assay and about 50,000 (12%) were called active. The inconclusive results got no clear call from the source; some entries with a clear call stand among them for comparison. Calls follow the shape of the dose curve; as a rule, active = well fitted inhibition curve with a large enough effect; inconclusive = small, poorly fitted or top-dose-only effect; inactive = flat fitted curve, though single readings scatter. Potencies of inconclusive entries are doubtful fits and often do not repeat.

experiment: qHTS for Inhibitors of human tyrosyl-DNA phosphodiesterase 1 (TDP1): qHTS in cells in presence of CPT; details: chicken DT40 Tdp1-/-;hTDP1 cells + 20 nM CPT, ATP luminescence, 48 h; activity change, negative = growth inhibition: at 46.2 µM (top of the series) unless noted; also: nearly all actives have a fitted effect of over 55% in size
Procedure, shortened: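 Chicken DT40 Tdp1-/- cells stably complemented with human TDP1 were seeded at 400 cells/well in medium containing 20 nM camptothecin, exposed to pin-transferred compounds, and grown at 37 °C for at least 48 hr. Viability was read as ATP luminescence.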
% is scaled to controls: 0 for no effect and ±100 for the full control effect; potency is read from the fitted curve at half-maximal effect; tags tell the direction and shape of the fitted curve.

Compound	Potency	activity change, negative = growth inhibition
Cn1c(O)c(/C=C2\N=c3ccccc3=C2CCNC(=S)NC2CC2)c(=O)n(C)c1=O	active: 14.6 µM	–
Cc1nccc2c1[nH]c1ccccc12	inconclusive: 15 µM [inhibitor, full curve, poor fit] and inconclusive: 25.9 µM [inhibitor, single point]	–
Clc1ccc(-c2nc3ccc(Cl)cn3c2CN2CCOCC2)cc1	inconclusive: 29.1 µM [inhibitor, single point]	–
O=C(COc1ccccc1)N1CCN(Cc2c[nH]c3ccccc23)CC1	active: 3.66 µM	–
O=C(Nc1ccc(C(F)(F)F)cc1)c1cccn(Cc2ccc3c(c2)OC(F)(F)O3)c1=O	–	inactive: -20.7%
Cc1cnc(C)c(Nc2nc(C(N)Cc3ccc(C(F)(F)F)cc3)cs2)n1 (stereo not drawn)	active: 11.6 µM	–
O=C(c1ccc(Cl)cc1)C1CCCN(Cc2cccc3ncccc23)C1 (stereo not drawn)	active: 18.4 µM	–
O=C(CNC(=O)c1ccc(Cl)cc1)Nc1ccc(Br)cc1C(=O)c1ccccc1	inconclusive: 29.1 µM [inhibitor, single point]	–
c1ccc(C[n+]2ccccc2)cc1	inconclusive: 20.6 µM [inhibitor, single point]	–
CCN1C(=O)c2ccccc2Sc2ccc(NC(=O)c3ccc(C)c(F)c3)cc21	inconclusive: 29.1 µM [inhibitor, single point]	–
Cc1cc(NC(=O)COC(=O)c2c(C)nn(Cc3ccccc3)c2C)no1	inconclusive: 32.6 µM [inhibitor, single point]	–
Cc1cc(N(C)C)ccc1N=Nc1ccc(N)cc1	inconclusive: 8.2 µM [inhibitor, partial curve]	–
C=CCn1c(O)c(C(C)=NCCC2=CCCCC2)c(=O)[nH]c1=O	inconclusive: 20.6 µM [inhibitor, partial curve]	–
COc1ccccc1OCCCn1cc(C(C)=O)c2ccccc21	inconclusive: 23.1 µM [inhibitor, single point]	–
Cc1cccc(Cn2cccc(C(=O)Nc3ccc(F)cc3F)c2=O)c1	–	inactive: -26.1%
c1cc2c(cc1N1CCCCC1)CNCc1cnnn1-2	–	inactive: -12.9%
CCc1cc2c(cc1-c1csc(C/C(N)=N/O)n1)C(C)(C)CCC2(C)C	inconclusive: 29.1 µM [inhibitor, single point]	–
NC(=O)C(c1ccccc1)(c1ccccc1)[C@@H]1CCN(CCc2ccc3c(c2)CCO3)C1	inconclusive: 23.7 µM [inhibitor, single point]	–
CCNC(=S)NCCC1=c2ccccc2=N/C1=C\c1c(O)n(C)c(=O)n(C)c1=O	inconclusive: 23.1 µM [inhibitor, single point]	–
COC(=O)C1=C(c2ccccc2)C[C@@H]2CC[C@H]1N2C(=O)NCC1CC1	inconclusive: 29.1 µM [inhibitor, single point]	–
CC1(C)NC(=S)C(C)(C)N1N=O	–	inactive: 7.57%
O=C(O)[C@@H](O)[C@H](O)[C@H](O)[C@@H](O)C(=O)O (tested in a mixture with another compound)	inconclusive: 33.5 µM [inhibitor, single point]	–
CNC(=O)c1cccn(Cc2cc(C(F)(F)F)cc(C(F)(F)F)c2)c1=O	inconclusive: 29.1 µM [inhibitor, single point]	–

Compound	Potency	activity change, negative = growth inhibition
O=c1c2cc(N3CCOCC3)ccc2[nH]c(=S)n1Cc1ccc(Cl)cc1	active: 20.6 µM	–
CCOC(=O)c1c(C)[nH]c(C)c1C(=O)C(Cc1ccccc1)N(C)C (stereo not drawn)	inconclusive: 16.4 µM [inhibitor, single point]	–
CCC1(C)Cc2ccccc2-c2c1c(=O)n(Cc1ccccc1)c1nnnn21 (stereo not drawn)	inconclusive: 32.6 µM [inhibitor, single point]	–
CCOC(=O)c1ncn2c1[C@H]1CCCN1C(=O)c1cc(OC)ccc1-2	inconclusive: 23.7 µM [inhibitor, partial curve, poor fit]	–
Cc1ccc(-n2c(-c3cccs3)nc3ccccc3c2=O)cc1	active: 9.2 µM	–
O=C(Nc1ccccc1)c1cc(C2CCCN(C(=O)C3CC3)C2)on1 (stereo not drawn)	inconclusive: 20.6 µM [inhibitor, single point]	–
CCC1C(c2cc(OC)c(OC)c(OC)c2)c2cc3c(cc2OC1N1CCCC1)OCO3 (stereo not drawn)	active: 5.17 µM	–
COc1cccc(CNCCc2ccc(F)cc2)c1	inconclusive: 29.1 µM [inhibitor, single point]	–
CC[C@]12CC[C@H](O)CC1=CCC1C2CC[C@]2(C)C(=O)CCC12 (stereo partly drawn)	inconclusive: 29.1 µM [inhibitor, single point]	–
CN1CC[C@@]2(C)c3cc(O)ccc3N(C)C12 (stereo partly drawn)	active: 3.98 µM	–
COc1cc(CC2C(=O)N(C)C(=O)N(C)C2=O)ccc1OCc1ccccc1	inconclusive: 20.6 µM [inhibitor, single point]	–
O=[N+]([O-])c1ccc2nc(CCCc3nc4ccc([N+](=O)[O-])cc4[nH]3)[nH]c2c1	inconclusive: 23.1 µM [inhibitor, single point]	–
CC[C@@]1(O)C(=O)OCc2c1cc1n(c2=O)Cc2cc3c(N)cccc3nc2-1	active: 0.164 µM	–
CC(C)c1ccc(Oc2cccc3c2S(=O)(=O)N(C2CCCC2)CC(COCc2ccccc2)O3)cc1 (stereo not drawn)	active: 10.3 µM	–
CC1=CC(=C2C(=O)NC(=S)NC2=O)C=C(C(F)(F)F)N1Cc1ccccc1	active: 1.64 µM	–
CNC(=O)O/N=C(\N)Cc1csc2ccc(Cl)cc12	active: 16.4 µM	–
Cc1ccc(/C=C2\C(=O)NC(=S)N(c3ccc(F)cc3)C2=O)s1	active: 2.91 µM	–
CC(C)(C)NC(=O)CN1CCCN(C(=O)COc2ccc(Cl)c3ccccc23)CC1	inconclusive: 29.1 µM [inhibitor, single point]	–
Cc1ccc(S(=O)(=O)N(CC(=O)NCCSc2ccc(Cl)cc2)c2ccccc2C)cc1	active: 20.6 µM	–
CN1CCN(c2cc(N3CCCCCC3)c(F)cc2[N+](=O)[O-])CC1	inconclusive: 20.6 µM [inhibitor, single point]	–
Cc1cc(/C=C2\C(=O)NC(=O)N(c3ccccc3)C2=O)c(C)n1-c1ccc(C(=O)O)c(Cl)c1	–	inactive: -1.48%
CC(C)c1ccc(C2NCc3ccccc3-n3cccc32)cc1 (stereo not drawn)	inconclusive: 18.4 µM [inhibitor, single point]	–
Clc1cccc(C(c2ccc3nc[nH]c3c2)n2ccnc2)c1 (stereo not drawn)	inconclusive: 33.5 µM [inhibitor, single point]	–

Compound	Potency	activity change, negative = growth inhibition
CCCCC[C@H]1CCCCC[C@@H](O)C[C@@H](O)[C@@H](O)/C=C/C(=O)O1	active: 10.3 µM	–
CC(Cc1ccccc1)N1Cc2ccccc2C1 (stereo not drawn)	–	inactive: 3.98%
COC(=O)[C@@H]1C[C@H]1[C@@H](NP(=O)(c1ccccc1)c1ccccc1)c1ccccc1	active: 20.6 µM	–
O=C1NC(=O)N(c2ccc(Cl)cc2)C(=O)/C1=C/c1coc2ccc(O)cc2c1=O	active: 14.6 µM	–
CC(C)OC(=O)c1c(N)n(Cc2ccco2)c2nc3ccccc3nc12	inconclusive: 20.6 µM [inhibitor, single point]	–
Nc1nnc(P(c2ccccc2)c2ccccc2)s1	inconclusive: 29.1 µM [inhibitor, single point]	–
C/C(=N\Nc1cccc2ccccc12)c1c(O)n(Cc2ccccc2)c(=O)[nH]c1=O	active: 16.4 µM	–
COc1ccc(OC(=O)N(C)C[C@@H]2OCc3ccccc3-c3c(n(C)c4ccccc34)C(=O)N([C@H](C)CO)C[C@@H]2C)cc1	–	inactive: 6.4%
O=C1CCCCC1CN1CCCCC1 (stereo not drawn)	inconclusive: 33.5 µM [inhibitor, single point]	–
Cc1ccc(O)cc1	inconclusive: 0.92 µM [inhibitor, full curve, poor fit]	–
O=C1CC=C2C3CC4N(CCC45c4cc(O)c(O)cc4N1C25)CC3=CCBr (stereo not drawn)	inconclusive: 18.4 µM [inhibitor, single point]	–
O=[N+]([O-])c1cc(C(F)(F)F)c(Cl)c([N+](=O)[O-])c1Nc1ncc(C(F)(F)F)cc1Cl	active: 0.1 µM	–
NC(N)=NN=C(/C=C/c1ccc([N+](=O)[O-])o1)/C=C/c1ccc([N+](=O)[O-])o1	active: 2.99 µM	–
c1ccc2c(c1)[I+]c1ccccc1-2	active: 33.5 nM and active: 15.8 nM and active: 79.4 nM	–
Cc1cccc(CCNCc2cc3cccc(C)c3[nH]c2=O)c1	active: 8.2 µM	–
CC12CCC(O)CC1CCC1C2CCC2(C)C(C(=O)CC(O)C(F)(F)F)CCC12 (stereo not drawn)	inconclusive: 18.4 µM [inhibitor, single point]	–
CCOP(=O)(OCC)C(Cc1ccc(OC)c(OC)c1)N=C(c1ccccc1)c1ccccc1 (stereo not drawn)	inconclusive: 29.1 µM [inhibitor, single point]	–
O=C(Nc1ccc(Oc2ccc(Cl)cc2)c(Cl)c1)c1cc(I)cc(I)c1O	inconclusive: 33.5 µM [inhibitor, single point] and inconclusive: 20.6 µM [inhibitor, single point]	–
COc1ccc(NC(=O)CSc2oc(-c3cccs3)nc2S(=O)(=O)c2ccccc2)c(OC)c1	active: 20.6 µM	–
C=C1C(=O)O[C@@H]2C[C@@H](C)[C@H]3C=CC(=O)[C@]3(O)C[C@@H]12	active: 4.61 µM	–
CCCCC(F)(F)[C@@]1(O)CC[C@H]2[C@@H](CC(=O)[C@@H]2CCCCCCC(=O)O)O1	inconclusive: 0.266 µM [inhibitor, full curve, poor fit]	–
N#Cc1cc2c(nc1SCC(=O)Nc1ccc(Cl)cc1)C1CCN2CC1	inconclusive: 29.1 µM [inhibitor, single point]	–
